23 molecules from the supplement of paper PMC9588766 can be followed below.

Structures can show the parent of a compound that is named as a salt. The full ranking holds about 1,900 compounds; the median of “cell viability of compound + 1 nM pemigatinib relative to pemigatinib-only (DMSO) wells” is about 0.95, and the lowest 2% start at about 0.22. Some of the results follow.

The assay relates to PDC-DUC18828. The experiment in a line: cell viability of compound + 1 nM pemigatinib relative to pemigatinib-only (DMSO) wells (fraction); PDC-DUC18828 is a patient-derived cholangiocarcinoma cell line; higher = less growth inhibition. The conditions noted are these: first compound 1 µM; pemigatinib concentration 1 nM; 72 h. On the procedure:
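Selleck Bioactive library screen in the patient-derived FGFR2 fusion-positive ICC cell line PDC-DUC18828 (500 cells/well). Each compound was tested at 1 uM with 1 nM pemigatinib, in triplicate, for 72 h. Viability was read by CellTiter-Glo and normalised to plate DMSO controls. Value is the paper's averaged normalised viability.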
`CC(=O)OCC(=O)[C@H]1CC[C@H]2[C@@H]3CCC4=CC(=O)CC[C@]4(C)[C@H]3CC[C@]12C` [Deoxycorticosterone acetate] + CCN1C(=O)N(c2c(F)c(OC)cc(OC)c2F)Cc2cnc3[nH]c(CN4CCOCC4)cc3c21 [pemigatinib]: the cell viability is 0.932.

As for `Cn1cc(-c2ccc3c(c2)CCN3C(=O)Cc2cccc(C(F)(F)F)c2)c2c(N)ncnc21` + CCN1C(=O)N(c2c(F)c(OC)cc(OC)c2F)Cc2cnc3[nH]c(CN4CCOCC4)cc3c21 [pemigatinib], the cell viability stood at 0.948.

Turning to `Oc1cccc(-c2nc(N3CCOCC3)c3oc4ncccc4c3n2)c1` + CCN1C(=O)N(c2c(F)c(OC)cc(OC)c2F)Cc2cnc3[nH]c(CN4CCOCC4)cc3c21 [pemigatinib], the cell viability was determined as 0.345.

Regarding `CN(C)CC/C=C1/c2ccccc2COc2ccc(CC(=O)O)cc21` [Olopatadine HCl] + CCN1C(=O)N(c2c(F)c(OC)cc(OC)c2F)Cc2cnc3[nH]c(CN4CCOCC4)cc3c21 [pemigatinib], the cell viability was found to be 0.954.

Regarding `Nc1ncnc2n[nH]c(Nc3ccc(F)cc3)c12` + CCN1C(=O)N(c2c(F)c(OC)cc(OC)c2F)Cc2cnc3[nH]c(CN4CCOCC4)cc3c21 [pemigatinib], the cell viability came out at 0.923.

For the molecule `CC[C@H](C)C[C@H](C)CCCCCCCCC(=O)N[C@H]1C[C@@H](O)[C@@H](NCCN)NC(=O)[C@@H]2[C@@H](O)CCN2C(=O)[C@H]([C@H](O)CCN)NC(=O)[C@H]([C@H](O)[C@@H](O)c2ccc(O)cc2)NC(=O)[C@@H]2C[C@@H](O)CN2C(=O)[C@H]([C@@H](C)O)NC1=O` [Caspofungin Acetate] + CCN1C(=O)N(c2c(F)c(OC)cc(OC)c2F)Cc2cnc3[nH]c(CN4CCOCC4)cc3c21 [pemigatinib], the cell viability was determined as 0.862.

`CCn1cc(NC(=S)Nc2cc(Cl)ccc2OC)c(C(N)=O)n1` + CCN1C(=O)N(c2c(F)c(OC)cc(OC)c2F)Cc2cnc3[nH]c(CN4CCOCC4)cc3c21 [pemigatinib]: the cell viability stood at 0.954.

Consider `CN(C)Cc1ccc(S(=O)(=O)n2ccc(/C=C/C(=O)NO)c2)cc1` [Resminostat] + CCN1C(=O)N(c2c(F)c(OC)cc(OC)c2F)Cc2cnc3[nH]c(CN4CCOCC4)cc3c21 [pemigatinib], for which the cell viability is 0.96.

With `c1ccc(CN(CC2=NCCN2)c2ccccc2)cc1` [Antazoline HCl] + CCN1C(=O)N(c2c(F)c(OC)cc(OC)c2F)Cc2cnc3[nH]c(CN4CCOCC4)cc3c21 [pemigatinib], the cell viability stood at 0.993.

In the case of `Cc1cc(OCc2nnc(SC3CCCC3)n2-c2cccnc2)ccc1-c1ccc(S(C)(=O)=O)cc1` + CCN1C(=O)N(c2c(F)c(OC)cc(OC)c2F)Cc2cnc3[nH]c(CN4CCOCC4)cc3c21 [pemigatinib], the cell viability came out at 0.792.

For the molecule `CNC(=O)c1ccc(C)c(-n2c(C)cc(OCc3ccc(F)cc3F)c(Br)c2=O)c1` + CCN1C(=O)N(c2c(F)c(OC)cc(OC)c2F)Cc2cnc3[nH]c(CN4CCOCC4)cc3c21 [pemigatinib], the cell viability stood at 0.997.

In the case of `Cc1ccc(-n2nc(C(C)(C)C)cc2NC(=O)Nc2ccc(OCCN3CCOCC3)c3ccccc23)cc1` [BIRB 796 (Doramapimod)] + CCN1C(=O)N(c2c(F)c(OC)cc(OC)c2F)Cc2cnc3[nH]c(CN4CCOCC4)cc3c21 [pemigatinib], the cell viability came to 1.05.

With `CCCCCCCCCCCC[N+](C)(C)CCOc1ccccc1` [Domiphen Bromide] + CCN1C(=O)N(c2c(F)c(OC)cc(OC)c2F)Cc2cnc3[nH]c(CN4CCOCC4)cc3c21 [pemigatinib], the cell viability was 0.943.

Take `O=C1NC(=O)C(c2ccccc2)(c2ccccc2)N1` [Phenytoin] + CCN1C(=O)N(c2c(F)c(OC)cc(OC)c2F)Cc2cnc3[nH]c(CN4CCOCC4)cc3c21 [pemigatinib]: the cell viability stood at 0.943.

Regarding `CC(C)(O)c1ccccc1CC[C@@H](SCC1(CC(=O)O)CC1)c1cccc(/C=C/c2ccc3ccc(Cl)cc3n2)c1` [Montelukast Sodium] + CCN1C(=O)N(c2c(F)c(OC)cc(OC)c2F)Cc2cnc3[nH]c(CN4CCOCC4)cc3c21 [pemigatinib], the cell viability was 1.02.

Consider `O=C(Nc1ccccc1)Nc1ccc(-c2ccc(C(=O)[C@@H]3CCC[C@H]3C(=O)O)cc2)cc1` + CCN1C(=O)N(c2c(F)c(OC)cc(OC)c2F)Cc2cnc3[nH]c(CN4CCOCC4)cc3c21 [pemigatinib], for which the cell viability came out at 1.02.

Take `CN(C)C/C=C/C(=O)Nc1cc2c(Nc3ccc(F)c(Cl)c3)ncnc2cc1O[C@H]1CCOC1` [Afatinib (BIBW2992)] + CCN1C(=O)N(c2c(F)c(OC)cc(OC)c2F)Cc2cnc3[nH]c(CN4CCOCC4)cc3c21 [pemigatinib]: the cell viability amounted to 0.735.

Consider `CN(C)C/C=C/C(=O)Nc1cc2c(Nc3ccc(F)c(Cl)c3)ncnc2cc1O[C@H]1CCOC1` [Afatinib (BIBW2992) Dimaleate] + CCN1C(=O)N(c2c(F)c(OC)cc(OC)c2F)Cc2cnc3[nH]c(CN4CCOCC4)cc3c21 [pemigatinib], for which the cell viability was 0.726.

For the molecule `CCN(CC)CCCC(C)Nc1nc(C)cc(Nc2ccc3nc(C)cc(N)c3c2)n1` (stereo not drawn) + CCN1C(=O)N(c2c(F)c(OC)cc(OC)c2F)Cc2cnc3[nH]c(CN4CCOCC4)cc3c21 [pemigatinib], the cell viability came out at 1.03.

`COc1c(N2CCNC(C)C2)c(F)cc2c(=O)c(C(=O)O)cn(C3CC3)c12` (stereo not drawn) [Gatifloxacin] + CCN1C(=O)N(c2c(F)c(OC)cc(OC)c2F)Cc2cnc3[nH]c(CN4CCOCC4)cc3c21 [pemigatinib]: the cell viability came out at 1.01.

Consider `O=C(c1ccccc1)c1ccc2n1CCC2C(=O)O` (stereo not drawn) [Ketorolac] + CCN1C(=O)N(c2c(F)c(OC)cc(OC)c2F)Cc2cnc3[nH]c(CN4CCOCC4)cc3c21 [pemigatinib], for which the cell viability was 1.05.

Turning to `C#CCC(Cc1cnc2nc(N)nc(N)c2n1)c1ccc(C(=O)N[C@@H](CCC(=O)O)C(=O)O)cc1` (stereo partly drawn) [Pralatrexate] + CCN1C(=O)N(c2c(F)c(OC)cc(OC)c2F)Cc2cnc3[nH]c(CN4CCOCC4)cc3c21 [pemigatinib], the cell viability came out at 0.973.

As to `O=C(C[S+]([O-])Cc1ccco1)NC/C=C\COc1cc(CN2CCCCC2)ccn1` (stereo not drawn) [Lafutidine] + CCN1C(=O)N(c2c(F)c(OC)cc(OC)c2F)Cc2cnc3[nH]c(CN4CCOCC4)cc3c21 [pemigatinib], the cell viability came out at 0.971.
